{
  "source": "PubChem BioAssay AID894",
  "about": "(National Center for Advancing Translational Sciences (NCATS), 2007)",
  "note": "Out of some 150,000 compounds screened, about 6,500 (4.3%) were called active. The shares of active, inactive and inconclusive entries below differ from those in the screen. Calls come from the whole dose curve; as a rule, active = well fitted inhibition curve with a large enough effect (not every such curve was filed as active); inconclusive = small, poorly fitted or top-dose-only effect, or another doubt; inactive = no such curve, though single readings can be large or run the other way. No potency is given beside an inconclusive call; the fits are too rough. The source holds several records for some structures; these can differ, active in one and inactive in another. % is set by controls: 0 for no effect and ±100 for the full control effect; potency is the fitted concentration of half-maximal effect; tags give direction and shape of the fitted curve.",
  "data": [
    {"target": "15-hydroxyprostaglandin dehydrogenase [NAD(+)] (Homo sapiens) (UniProt P15428)", "sequence (P15428 whole entry, looked up)": "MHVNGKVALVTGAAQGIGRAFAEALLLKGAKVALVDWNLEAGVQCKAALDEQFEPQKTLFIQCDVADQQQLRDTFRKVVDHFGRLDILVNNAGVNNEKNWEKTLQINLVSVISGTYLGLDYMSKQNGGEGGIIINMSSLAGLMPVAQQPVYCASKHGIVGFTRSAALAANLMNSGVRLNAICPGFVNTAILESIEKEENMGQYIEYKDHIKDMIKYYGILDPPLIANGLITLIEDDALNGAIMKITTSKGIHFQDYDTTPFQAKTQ", "experiment": "qHTS Assay for Inhibitors of HPGD (15-Hydroxyprostaglandin Dehydrogenase)", "conditions": "purified HPGD, NADH fluorescence kinetic, PGE2 substrate; activity change, negative = inhibition: stronger effect = lower value", "how_it_was_run": "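NADH formation kinetics: reaction with 30 uM PGE2 and 1 mM NAD+ (final), 20 nM enzyme, Tris-HCl pH 8 with Tween 20, after 15 min compound preincubation at room temperature. Fluorescence change, last versus first of five reads.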", "values": [
      {"smiles": "COc1ccccc1-c1nc(C#N)c(N2CCN(Cc3ccccc3)CC2)o1", "Potency": "inconclusive [inhibitor, partial curve]"},
      {"smiles": "Fc1ccc(COc2ccccc2C(=S)N2CCCC2)cc1", "Potency": "active: 8.91 µM"},
      {"smiles": "CCNc1ncc2nc(-c3ccccc3)c(=O)n(C3CC3)c2n1", "Potency": "inconclusive [inhibitor, full curve]"},
      {"smiles": "Cc1c(C)n(CC(O)CN2C(=O)c3ccccc3S2(=O)=O)c2ccccc12", "note": "(stereo unspecified)", "Potency": "active: 20 µM"},
      {"smiles": "O=C(OCn1ncc(Br)c(Br)c1=O)c1ccc(F)cc1", "Potency": "active: 22.4 µM"},
      {"smiles": "Cc1cccc(C(=O)Nc2ccccc2-c2nnn(CC(=O)Nc3ccc4c(c3)OCCO4)n2)c1", "Potency": "inconclusive [inhibitor, partial curve]"},
      {"smiles": "Oc1[nH]c(=S)sc1/C=C1\\C(c2ccccc2)=Nc2ccccc21", "Potency": "inconclusive [inhibitor, partial curve]"},
      {"smiles": "Cc1cc(OC(=O)c2ccccc2Br)cc(=O)n1C", "Potency": "active: 12.6 µM"},
      {"smiles": "COC(=O)[C@@H]1C[C@@H]2CC[C@@H](O)C[C@@H]2N1Cc1ccc(N2CCN(C)CC2)cc1", "activity change, negative = inhibition": "inactive: -3.21%"},
      {"smiles": "S=C(NCc1cccs1)Nc1cccc(Cl)c1", "Potency": "active: 12.6 µM"},
      {"smiles": "CCOC(=O)C1C(=O)OC2(CCCCC2)C1C(=O)OCC", "note": "(stereo unspecified)", "activity change, negative = inhibition": "inactive: -12.1%"},
      {"smiles": "CC(=O)Nc1nonc1-n1nnc(C(=O)NCc2ccccc2)c1C", "Potency": "inconclusive [inhibitor, partial curve]"},
      {"smiles": "Cc1cc(NCCCn2ccnc2)n2c(nc3ccccc32)c1C#N", "Potency": "inconclusive [inhibitor, partial curve]"},
      {"smiles": "Cc1cccc(N2C(=O)CC(Sc3nc(-c4ccccc4)c4cc(Cl)ccc4n3)C2=O)c1", "note": "(stereo unspecified)", "Potency": "inconclusive [inhibitor, partial curve]"},
      {"smiles": "COCCNC(=O)C1(CC(C)C)C=CCN1C(=O)c1ccccc1", "note": "(stereo unspecified)", "activity change, negative = inhibition": "inactive: -7.71%"},
      {"smiles": "Fc1cccc(C[n+]2csc3ccccc32)c1", "Potency": "active: 3.98 µM"},
      {"smiles": "O=C(CSc1ccccn1)N/N=C/C=C/c1ccccc1", "Potency": "active: 20 µM"},
      {"smiles": "CCOC(=O)c1c(NC(=O)c2cc3n(n2)C(C(F)(F)F)CC(c2cccs2)N3)sc(C)c1C", "note": "(stereo unspecified)", "Potency": "inconclusive [inhibitor, partial curve]"},
      {"smiles": "CN(C)c1ccc(CNC(=O)c2ccc(CNc3c(N4CCCCC4)c(=O)c3=O)cc2)cc1", "Potency": "active: 22.4 µM"},
      {"smiles": "Oc1ccc(-c2cn3c(n2)SCC3)cc1O", "Potency": "active: 2.24 µM"},
      {"smiles": "CCN1CC(c2ccccc2)C(c2ccc(Cl)cc2)=N1", "note": "(stereo unspecified)", "Potency": "inconclusive [inhibitor, partial curve]"},
      {"smiles": "COc1ccc2c(c1)cc1n2CCN=C1NN", "Potency": "inconclusive [inhibitor, partial curve]"},
      {"smiles": "CCOC(=O)N/N=C/C=C/c1ccccc1", "activity change, negative = inhibition": "inactive: -15.8%"},
      {"smiles": "COc1ccc(-c2nn(-c3ccccc3)cc2C(=O)Nc2nccs2)cc1OC", "Potency": "inconclusive [inhibitor, partial curve]"},
      {"smiles": "Cc1cc(C(=O)OCC(=O)N2CC(=O)Nc3ccccc32)c(C)n1-c1ccc(F)cc1", "activity change, negative = inhibition": "inactive: -24.3%"},
      {"smiles": "c1ccc(CSc2ncnc3c2sc2nc(N4CCOCC4)c4c(c23)CCCC4)cc1", "Potency": "inconclusive [inhibitor, partial curve]"},
      {"smiles": "N#Cc1c(N2CCN(C(=O)c3ccccc3)CC2)nc(-c2ccccc2)c2c1CCCC2", "Potency": "inconclusive [inhibitor, partial curve]"},
      {"smiles": "Cn1c(C(=O)NCCCN2CCOCC2)cc2c(=O)n(C)c3ccccc3c21", "Potency": "inconclusive [inhibitor, single point]"},
      {"smiles": "COc1c2occc2c(OC)c2c(=O)cc(C)oc12", "Potency": "active: 28.2 µM"},
      {"smiles": "CNc1ncnc2ccc(-c3ccccc3OC)cc12", "Potency": "inconclusive [inhibitor, partial curve]"},
      {"smiles": "O=C(CSC1=NCCS1)NC1CCCCC1", "Potency": "inconclusive [inhibitor, single point]"},
      {"smiles": "COc1ccc2c(CCNC(=O)c3ccco3)c[nH]c2c1", "Potency": "inconclusive [inhibitor, partial curve]"},
      {"smiles": "CC(=O)c1ccc(NC(=O)c2ccc3nc(-c4ccco4)c(-c4ccco4)nc3c2)cc1", "Potency": "inconclusive [inhibitor, partial curve]"},
      {"smiles": "O=C(NCc1ccccc1F)c1cccs1", "Potency": "inconclusive [inhibitor, partial curve]"},
      {"smiles": "Fc1ccccc1CSc1nc2ccccc2[nH]1", "Potency": "active: 20 µM"},
      {"smiles": "COc1ccc(C)c2sc(=NC(=O)c3ccccc3)n(C)c12", "Potency": "inconclusive [inhibitor, single point]"},
      {"smiles": "CNC(=O)CSc1nnc(-c2ccc(S(=O)(=O)N3CCCC3)cc2)n1-c1cccc(C)c1C", "Potency": "inconclusive [inhibitor, partial curve]"},
      {"smiles": "S=C(NCCSCc1c(Cl)cccc1Cl)Nc1ccccc1", "Potency": "active: 25.1 µM"},
      {"smiles": "Cc1cc(C)nc(NC(=O)/C=C/c2ccc(Cl)cc2Cl)c1", "Potency": "inconclusive [inhibitor, partial curve]"},
      {"smiles": "Cc1cc(=O)oc2cc(OCC3CC(c4ccc(Cl)cc4)=NO3)ccc12", "note": "(stereo unspecified)", "Potency": "inconclusive [inhibitor, partial curve]"},
      {"smiles": "Cc1nc2cc(-c3cccc(F)c3)nn2c(N2CCN(C(=O)c3ccco3)CC2)c1C", "Potency": "inconclusive [inhibitor, partial curve]"},
      {"smiles": "Cc1nc2ccccn2c1C(=O)N/N=C/c1cc(C)n(-c2ccc(Cl)cc2)c1C", "Potency": "inconclusive [inhibitor, partial curve, poor fit]"},
      {"smiles": "O=C(Nc1ccccc1C(F)(F)F)c1cc2ncc(CCCl)cn2n1", "Potency": "inconclusive [inhibitor, single point]"},
      {"smiles": "CN(C)S(=O)(=O)c1ccc(C(=O)Nc2nnc(SCc3ccccc3)s2)cc1", "Potency": "inconclusive [inhibitor, partial curve]"},
      {"smiles": "CCCCOC(=O)Cn1c(=O)c2c(nc3n2CCCCN3c2ccc(C)cc2)n(C)c1=O", "activity change, negative = inhibition": "inactive: -15.2%"},
      {"smiles": "O=C(Cn1cnc2c(nnn2Cc2ccccc2)c1=O)NCc1ccco1", "Potency": "active: 14.1 µM"},
      {"smiles": "Cn1c(=O)c(Nc2ccc(O)cc2)c2c3c(cccc31)C(=O)c1ccccc1-2", "Potency": "active: 25.1 µM"},
      {"smiles": "COCCNC(=S)N/N=C/c1ccc(N2CCOCC2)cc1", "Potency": "inconclusive [inhibitor, partial curve]"},
      {"smiles": "CC(=O)Nc1ccc(S(=O)(=O)NCC(=O)OCc2cc(=O)oc3ccc4ccccc4c23)cc1", "Potency": "inconclusive [inhibitor, partial curve]"},
      {"smiles": "CC1(C)CC(=O)c2sc(NC(=O)CCS(=O)(=O)c3ccccc3)nc2C1", "Potency": "inconclusive [inhibitor, partial curve, poor fit]"},
      {"smiles": "Cc1ccc(C2c3c(oc4ccccc4c3=O)C(=O)N2c2nnc(C(C)C)s2)o1", "note": "(stereo unspecified)", "activity change, negative = inhibition": "inactive: -7.41%"},
      {"smiles": "Cc1cn2c(-c3ccncc3)nnc2s1", "Potency": "inconclusive [inhibitor, partial curve]"},
      {"smiles": "CCOC(=O)c1c(NC(=O)C2(C)Cc3ccccc3C(=O)O2)sc2c1CCCC2", "note": "(stereo unspecified)", "Potency": "inconclusive [inhibitor, partial curve]"},
      {"smiles": "O=C(O)c1c[nH]c2cc(C(F)(F)F)ccc2c1=O", "Potency": "inconclusive [inhibitor, partial curve]"},
      {"smiles": "O=C(CSc1ncnc2c1oc1ccccc12)N1CCc2ccccc2C1", "Potency": "active: 3.98 µM"},
      {"smiles": "O=C(CSc1c[nH]c2ccccc12)NCc1ccc2c(c1)OCO2", "activity change, negative = inhibition": "inactive: -22.3%"},
      {"smiles": "CCOC(=O)c1c(NC(=O)c2cc(C)oc2C)sc(C(=O)Nc2ccc(Cl)cc2)c1C", "Potency": "inconclusive [inhibitor, single point]"},
      {"smiles": "Cn1c(SCC(=O)N/N=C/C=C\\c2ccco2)nc2ccccc21", "Potency": "active: 20 µM"},
      {"smiles": "Cc1c(C(=O)O)cccc1-c1ccc(/C=N/Nc2ccc(Br)cc2)o1", "Potency": "inconclusive [inhibitor, partial curve]"},
      {"smiles": "O=C(NCc1ccco1)c1ccc(COc2cccc3ccccc23)cc1", "Potency": "inconclusive [inhibitor, single point]"},
      {"smiles": "CCN1CCN(C(=O)CSCc2nc(-c3ccc(OC)c(OC)c3)oc2C)CC1", "Potency": "inconclusive [inhibitor, partial curve]"},
      {"smiles": "O=[N+]([O-])c1ccc(N2CCCCC2)cc1NCCOc1ccccc1", "activity change, negative = inhibition": "inactive: -7.82%"},
      {"smiles": "Cc1ccc(NC(=O)c2cc(-c3ccccc3)nn2-c2ccccc2)c(Br)c1", "Potency": "inconclusive [inhibitor, single point]"},
      {"smiles": "c1ccc(-n2c(-c3cccs3)nc3nc4ccccc4nc32)cc1", "Potency": "inconclusive [inhibitor, partial curve]"},
      {"smiles": "CCOC(=O)c1c(-c2cccs2)csc1NC(=O)COC(=O)c1c(C)noc1C", "Potency": "inconclusive [inhibitor, single point]"},
      {"smiles": "Cc1nc2cc3nc(C)sc3cc2s1", "Potency": "active: 12.6 µM"},
      {"smiles": "Cn1cc(Cl)c(-c2n[nH]c(=S)n2-c2ccc(F)cc2)n1", "activity change, negative = inhibition": "inactive: -10.8%"},
      {"smiles": "COc1ccccc1Nc1nc(N)nc(-c2cc3ccccc3o2)n1", "Potency": "inconclusive [inhibitor, single point]"},
      {"smiles": "O=C(/C=C/c1ccco1)NC(=S)Nc1ccc(Cl)cn1", "activity change, negative = inhibition": "inactive: -25.8%"},
      {"smiles": "O=C(COC(=O)c1cc(S(=O)(=O)N2CCc3ccccc3C2)ccc1Cl)NCc1ccco1", "Potency": "inconclusive [inhibitor, single point]"},
      {"smiles": "Cc1noc(C)c1C(=O)N1CCC2(CCCN(C(=O)Nc3cccc(C#N)c3)C2)CC1", "activity change, negative = inhibition": "inactive: -4.85%"}
    ]}
  ]
}
